This assay concerns NCI-H322M lung. Kind of assay: NCI-60 cell line screen, 48 h.

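Step 1: Grow cells in 96-well plates. Step 2: Expose to compound for 48 hours at 5 concentrations. Step 3: Interpolate endpoints linearly; if unreached, use highest concentration. GI50 marks 50% less growth. TGI: total growth inhibition.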 A value given as a limit tells only on which side of the number the result lay.

This passage reports GI50 and TGI results from PubChem BioAssay (NCI).

As to `O=C(CNc1nc(-c2ccccc2)cs1)Nc1ccc([N+](=O)[O-])cc1Cl`, the GI50 was 6.66 µM and the TGI stood at 19.9 µM.
Take `Nc1nnc(-c2c[nH]c3ncc(Br)cc23)c(-c2c[nH]c3ccc(Br)cc23)n1`: the GI50 was 11 µM and the TGI was determined as 27.8 µM.
Regarding `CN1CCc2c(sc3ncnc(N/N=C/c4ccc(Cl)cc4Cl)c23)C1`, the GI50 was 3.29 µM and the TGI is over 100 µM.
In the case of `O=C(/C=C/c1cccc(OCc2ccc(F)cc2)c1)c1nc2ccccc2[nH]1`, the GI50 was 59.9 µM and the TGI was over 100 µM.
With `COc1cccc(-c2ccc(/C=N/NC(=O)c3[nH]c4ccc(Br)cc4c3-c3ccccc3)o2)c1`, the GI50 is 7.5 µM and the TGI is over 100 µM.
